Some of the results follow.

This assay concerns the target T1, OsWOX13 (Oryza sativa, UniProt Q5QMM3 1-267).
T1 sequence: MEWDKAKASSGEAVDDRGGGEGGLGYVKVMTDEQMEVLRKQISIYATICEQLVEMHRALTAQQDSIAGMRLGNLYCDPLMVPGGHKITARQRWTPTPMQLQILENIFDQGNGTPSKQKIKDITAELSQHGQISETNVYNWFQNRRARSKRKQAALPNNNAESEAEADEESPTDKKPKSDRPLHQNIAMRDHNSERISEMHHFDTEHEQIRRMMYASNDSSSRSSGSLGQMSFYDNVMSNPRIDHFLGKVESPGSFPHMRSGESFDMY
Put plainly: protein-binding microarray (RPBM); PBS, 2% BSA, 51.3 ng/ul salmon testes DNA, 50 uM zinc acetate, 200 nM TF, 25 C, 1 h; high values mean tight binding. As to conditions: protein: recombinant; tags: N-terminal polyhistidine and DsRed monomer fusion (pET32a); label: CyDye5-dUTP incorporated in the synthesized complementary strand; 3' TTTTT single-stranded linker to array surface; dsDNA, one strand shown. The gist of the method: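 Transcription factors were made in E. coli BL21-CodonPlus as N-terminal fusions to a polyhistidine tag and DsRed, then purified on Ni–NTA. After primer extension with Cy5-dUTP and blocking with 2% BSA, a custom Agilent array was exposed for 1 h at 25 °C to 200 nM protein in PBS, 2% BSA, salmon testes DNA and 50 µM zinc acetate. Washed arrays were scanned on an Axon 4000B, and the binding signal is per-feature fluorescence intensity in arbitrary units.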
In the case of “CATTTGTTCATTGATTGTGATTTTGCAAAGTTTATTTGGACGGAGTCACCTAGTGCAG”, the binding signal is 19800 fluorescence intensity (a.u.).

“CCGCAATCAAAATTTAAATTTTAAAACTTAACTTTATAGTCGGAGTCACCTAGTGCAG”: the binding signal is 40100 fluorescence intensity (a.u.).

For “CCAAGATTAGTAATTGATTGCACTCCTTCAAAATTATTCTCGGAGTCACCTAGTGCAG”, the binding signal is 43300 fluorescence intensity (a.u.).

For “TCCTAATGAACCAAGATTAGCTTCTCAGTACTGGTGTTTGCGGAGTCACCTAGTGCAG”, the binding signal was 6190 fluorescence intensity (a.u.).

Regarding “TAGTCTGTCAAATTGGCCATCCATCTCCAGCACTGATACCCGGAGTCACCTAGTGCAG”, the binding signal is 5020 fluorescence intensity (a.u.).

For the sequence “CGCTAACATAATTGTTAGAAACATATGTACGGTGTGATTGCGGAGTCACCTAGTGCAG”, the binding signal was 46400 fluorescence intensity (a.u.).

As for “CTTGGCTAATTTGTGTCTTTGGATGGAACAATATTGTCTCCGGAGTCACCTAGTGCAG”, the binding signal was 16000 fluorescence intensity (a.u.).

With “AGTTATTTCCTAATTGTATTTCTATATGAACTCTAGTCTCCGGAGTCACCTAGTGCAG”, the binding signal was 4070 fluorescence intensity (a.u.).

With “TTAAGCATAATTTAAATCTTATACGTTTACATAAAATTTTCGGAGTCACCTAGTGCAG”, the binding signal is 5680 fluorescence intensity (a.u.).

Take “ATATCCCATCCAATCAAAATTGTTATGTTTTGAGAGAGAGCGGAGTCACCTAGTGCAG”: the binding signal is 10400 fluorescence intensity (a.u.).

With “ATGGGCTGATTGGGCTCAATGTTTGCGAGATCTCGATCAACGGAGTCACCTAGTGCAG”, the binding signal was 20800 fluorescence intensity (a.u.).

Take “ATATAATGAAATTTCAGAGAGGGTGGACTGGGCTTTATAGCGGAGTCACCTAGTGCAG”: the binding signal was 6290 fluorescence intensity (a.u.).

As for “TAAGGTGATTGTATTTATAGCTAATTATTCTTTCATTCGTCGGAGTCACCTAGTGCAG”, the binding signal was 19500 fluorescence intensity (a.u.).

For the sequence “CGAATCTAGATAAAGTCAATTAGACACCACTTAATAGACTCGGAGTCACCTAGTGCAG”, the binding signal was 5710 fluorescence intensity (a.u.).

For “TGCCAATTGCCAAATAATCTCATCACTGAATAACACGGAGCGGAGTCACCTAGTGCAG”, the binding signal was 4500 fluorescence intensity (a.u.).

“GTTTGATTGCACATTATGTCCTTGGAGTTCTTCAACATAGCGGAGTCACCTAGTGCAG”: the binding signal is 55700 fluorescence intensity (a.u.).

On to “CTATATTGAAAGTCACTGACATGTGGGCTAAGCATATAGCCGGAGTCACCTAGTGCAG”, for which the binding signal was 3180 fluorescence intensity (a.u.).

“CCAATTAAGATTTCTAATATTATGATATGTCGCATCCGGTCGGAGTCACCTAGTGCAG”: the binding signal is 4340 fluorescence intensity (a.u.).

Turning to “GATCCCAATTAACTCGTCACGTTAACTAAAATCAGACAATCGGAGTCACCTAGTGCAG”, the binding signal was 18100 fluorescence intensity (a.u.).

Regarding “CTTGGTTGATTTTCATGTGTGGATCCATGGGGATGGTCATCGGAGTCACCTAGTGCAG”, the binding signal was 3440 fluorescence intensity (a.u.).

In the case of “CAGGTAGGATTTGATTAATCATATTATTAGTTACAAATAACGGAGTCACCTAGTGCAG”, the binding signal was 12400 fluorescence intensity (a.u.).

Consider “TCACACCAAAATTGAAAATTTGATTGAAATTGGAATGATGCGGAGTCACCTAGTGCAG”, for which the binding signal was 26900 fluorescence intensity (a.u.).

For “AGCAGTAAATTACAAAACCCAAACGTATAAAATTCTCTTACGGAGTCACCTAGTGCAG”, the binding signal is 3720 fluorescence intensity (a.u.).

Consider “GGGGTAATTACTGCCTCGGATGATGGAAAATGCTTGATCGCGGAGTCACCTAGTGCAG”, for which the binding signal is 28600 fluorescence intensity (a.u.).

As to “AACATGACTGCAATACCGGATTATCCAATGTCCGAGGGACCGGAGTCACCTAGTGCAG”, the binding signal is 10900 fluorescence intensity (a.u.).

With “GCAATAAATTACTGGGGTCAGTGGACGATGCCTCCCTTCCCGGAGTCACCTAGTGCAG”, the binding signal is 9380 fluorescence intensity (a.u.).

On to “ACTATAAATGGGATTACTTTCCTTTGCTTAATAGTTCATGCGGAGTCACCTAGTGCAG”, for which the binding signal is 4040 fluorescence intensity (a.u.).

On to “GATTACGATTATAACCTCAATTACTTATCAATGCCAAGAACGGAGTCACCTAGTGCAG”, for which the binding signal is 4270 fluorescence intensity (a.u.).

For “ATTAATTAATTAGTGATCATACATAATTGAGGTGATTTATCGGAGTCACCTAGTGCAG”, the binding signal was 65000 fluorescence intensity (a.u.).

As to “AACCAGTTCAATCATCCAGTATACTTCCCATCCTCCTACTCGGAGTCACCTAGTGCAG”, the binding signal was 5200 fluorescence intensity (a.u.).

As to “ATTAGTAATTGATATAGAGGTAGACAGAAGGACGGCACTACGGAGTCACCTAGTGCAG”, the binding signal is 32500 fluorescence intensity (a.u.).

For “CTTGCTGATTTCTGTTCCCTAAACCCCTCAAGCACTGCTGCGGAGTCACCTAGTGCAG”, the binding signal was 7470 fluorescence intensity (a.u.).

Turning to “AAATCGGCGCAAATTGCTAATCATGTTGTACTGTAATATACGGAGTCACCTAGTGCAG”, the binding signal is 13000 fluorescence intensity (a.u.).

Turning to “TGACCGGTGACAGGACAAATCACGGCACTAGACACCACCACGGAGTCACCTAGTGCAG”, the binding signal is 12700 fluorescence intensity (a.u.).

Turning to “AAAGTTGATAATCACAATCAATTAGGCCCCTTTGCAATGCCGGAGTCACCTAGTGCAG”, the binding signal is 34300 fluorescence intensity (a.u.).

In the case of “GATTAACTAGGAGTTGATTATAAGCTAAATCGGCTTTATTCGGAGTCACCTAGTGCAG”, the binding signal was 16000 fluorescence intensity (a.u.).

Regarding “ATAAATAATGAAATGTTAAATTAGCCGTCCGGTTTCTCCACGGAGTCACCTAGTGCAG”, the binding signal was 23700 fluorescence intensity (a.u.).

For the sequence “GATCCATGAGATATGATCATCAATTAATACATGTGCTGATCGGAGTCACCTAGTGCAG”, the binding signal is 4010 fluorescence intensity (a.u.).

With “CATAAATTTGTTTATTCTATACATAAACAGGGAAAGTTTCCGGAGTCACCTAGTGCAG”, the binding signal was 18500 fluorescence intensity (a.u.).

On to “ACAAACTGCTGTTATCCATCCAATCCAGTGTCCCAAAGCACGGAGTCACCTAGTGCAG”, for which the binding signal is 7640 fluorescence intensity (a.u.).

In the case of “AAGGATTAATTTCTAAATGATAAAAGTTTTGTTGTTATGACGGAGTCACCTAGTGCAG”, the binding signal is 26000 fluorescence intensity (a.u.).

With “GAATCAAGTGATTGGGATAGATCGGTCACTTGCTGAGACACGGAGTCACCTAGTGCAG”, the binding signal was 15800 fluorescence intensity (a.u.).

These data come from article PMC7819943, “Rice protein-binding microarrays: a tool to detect cis-acting elements near promoter regions in rice”.
